Test results published in PubChem BioAssay (NCATS).
The inconclusive results got no clear call from the source; some entries with a clear call stand among them for comparison. For some assays here: Potencies beside an inconclusive call are fits to weak or partial responses and may not hold up. Calls of active or inactive are those of the source. Calls follow the shape of the dose curve; as a rule, active = well fitted curve in the direction sought with a large enough effect; inconclusive = small, poorly fitted or top-dose-only effect, or another doubt; inactive = no such curve, though single readings can be large; an effect the other way counts as inactive or inconclusive.

How the values were obtained:
[1] = qHTS assay for cell viability of the p53RE-bla HCT-116 cell line (AID 743292); conditions: p53RE-bla HCT-116 viability, ATP luminescence, 16 h; also: potency is read from the fitted curve at half-maximal effect; nearly all actives have a fitted effect of over 55% in size
Outline: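 Luminescent ATP quantitation (CellTiter-Glo) served as the viability read-out; reagent was added after 16 h compound exposure at 37 C and read after 30 min at room temperature. Cells: p53RE-bla HCT-116, 4,000 per well.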

[2] = qHTS Screen of the MIPE 4.0 Collection Against Ewings Sarcoma (EW8) (AID 1259255); conditions: EW8 Ewing sarcoma viability, CellTiter-Glo, 48 h; series mostly up to 45.8 µM; also: nearly all actives have a fitted effect of over 35% in size; also: potency is read from the fitted curve at half-maximal effect;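 as to viability: 100% = DMSO-treated cells and 0% = medium-only wells without cells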
Outline: (§1)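 Cells plated in serum-containing RPMI (5% FBS) and treated with compound dilutions for 48 h. Readout luminescent viability; normalization relied on vehicle (no inhibition) and media-only columns (full inhibition).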

[3] = qHTS Screen of the MIPE 4.0 Collection Against Ewings Sarcoma (TC32) (AID 1259256); conditions: TC32 Ewing sarcoma viability, CellTiter-Glo, 48 h; series mostly up to 45.8 µM; also: nearly all actives have a fitted effect of over 45% in size; also: potency is read from the fitted curve at half-maximal effect;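 as to viability (percent of control): 100% = DMSO-treated cells and 0% = medium-only wells without cells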
Outline: as §1

[4] = Identifying Small Molecule Inhibitors of Pancreatic Cancer Stem Cells (A2780, Spheroid) (AID 1259357); conditions: Potency: A2780 spheroid viability; viability (percent of control): at 46.1 µM (top of the series);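 also: spheroids pre-formed over 14 days in stem cell medium on hydrogel; potency is read from the fitted curve at half-maximal effect; compound exposure lasted 48 h before the ATP luminescence read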
Outline: (§2)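 Spheroids grown 14 days in stem cell media on nonadherent hydrogel before screening; cells attached 4 h, then compound exposure 48 h at 37C, 5% CO2. CellTiter-Glo luminescence normalized to DMSO (no inhibition) and no-cell wells (full inhibition).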

[5] = Identifying Small Molecule Inhibitors of Pancreatic Cancer Stem Cells (Panc1, Spheroid) (AID 1259359); conditions: Panc1 spheroid cancer stem cell viability; viability, % of control: at 46.1 µM (top of the series) unless noted;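 also: compound exposure lasted 48 h before reading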; also: potency is read from the fitted curve at half-maximal effect
Outline: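 Endpoint: ATP-based luminescence, 48 h drug exposure. Bortezomib at 9.2 uM final as full-kill control; DMSO vehicle as negative control; activity normalized between vehicle and cell-free wells.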

[6] = Identifying Small Molecule Inhibitors of Pancreatic Cancer Stem Cells (SN12C, Spheroid) (AID 1259360); conditions: Potency: SN12C spheroid viability; series mostly up to 46.1 µM; also: potency is read from the fitted curve at half-maximal effect;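 as to viability (% of control): 100% = DMSO-treated cells and 0% = wells without cells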
Outline: as §2

[7] = qHTS Assay for Identifying Gametocytocidal Compounds (AID 743244); also: potency is read from the fitted curve at half-maximal effect; conditions: P. falciparum 3D7 stage III-V gametocytes, alamarBlue, 72 h; max response: hits give low values
Outline: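 Stage III-V P. falciparum 3D7 gametocytes, 20,000 per well, were exposed to compounds for 72 h at 37C, 5% CO2. AlamarBlue was then added for 24 h and viability was read as fluorescence at Ex 525/Em 598 nm.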

[8] = Identifying Small Molecule Inhibitors of Pancreatic Cancer Stem Cells (A278, Adherent) (AID 1259361); conditions: viability (% of control): at 46.1 µM (top of the series) unless noted;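 also: viability read after 48 h compound exposure; nearly all actives have a fitted effect of over 35% in size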
Outline: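 Pre-formed 14-day tumor spheroids or adherent cells dosed and incubated 48 h, 37C, 5% CO2. Viability assessed by CellTiter-Glo.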
Tags tell the direction and shape of the fitted curve.

## OC[C@@H](O)[C@@H](O)[C@H](O)[C@@H](O)CO
[1]
  Potency: inconclusive: 70.8 µM [rising, single point]
[2]
  Potency: inactive
[3]
  Potency: inactive

## CC(c1cc2ccccc2s1)N(O)C(N)=O (stereo not given)
[2]
  Potency: inactive
[3]
  Potency: inactive
[4]
  Potency: inconclusive: 0.0054 µM [rising, full curve, poor fit]
[5]
  viability, % of control: inconclusive: 131% [at 92.2 µM]
[6]
  Potency: inactive

## COc1cc(Nc2c(C#N)cnc3cc(OCCCN4CCN(C)CC4)c(OC)cc23)c(Cl)cc1Cl
[7]
  Potency: active: 3.55 µM
[2]
  Potency: inconclusive: 18.7 µM [inhibitor, partial curve]
[3]
  Potency: inconclusive: 37.2 µM [inhibitor, single point]
[4]
  Potency: inconclusive: 23.5 µM [cytotoxic, partial curve, poor fit]
[5]
  Potency: inconclusive: 20.9 µM [cytotoxic, partial curve, poor fit]
[6]
  Potency: inconclusive: 23.5 µM [cytotoxic, partial curve]
[8]
  IC50 (viability decrease): active: 23.5 µM

## COc1cc2c(cc1OC)CN(CCc1ccc(NC(=O)c3cccc4c(=O)c5cccc(OC)c5[nH]c34)cc1)CC2
[7]
  Potency: inconclusive: 37.2 µM [inhibitor, single point]
[2]
  Potency: inconclusive: 29.6 µM [inhibitor, single point]
[3]
  Potency: inconclusive: 33.2 µM [inhibitor, single point]
[4]
  Potency: inconclusive: 0.332 µM [cytotoxic, full curve, poor fit]
[5]
  Potency: inconclusive: 5.9 µM [rising, partial curve, poor fit]
